In all, about 48,000 compounds went through this assay and about 550 (1.1%) were called active. About 4% were inconclusive and are not listed. Rule as the data show it: active = potency below about 15 µM; inconclusive = mostly about 16 µM to 33 µM; inactive = weaker than that. The list shows a part of the results.
These compounds were tested against Lysosomal acid glucosylceramidase (Homo sapiens) (UniProt P04062) (assay: Glucocerebrosidase). Details: purified enzyme, resorufin glucoside fluorescence (screen aimed at inhibitors), 20 min.
UniProt P04062, sequence (P04062 whole entry, looked up): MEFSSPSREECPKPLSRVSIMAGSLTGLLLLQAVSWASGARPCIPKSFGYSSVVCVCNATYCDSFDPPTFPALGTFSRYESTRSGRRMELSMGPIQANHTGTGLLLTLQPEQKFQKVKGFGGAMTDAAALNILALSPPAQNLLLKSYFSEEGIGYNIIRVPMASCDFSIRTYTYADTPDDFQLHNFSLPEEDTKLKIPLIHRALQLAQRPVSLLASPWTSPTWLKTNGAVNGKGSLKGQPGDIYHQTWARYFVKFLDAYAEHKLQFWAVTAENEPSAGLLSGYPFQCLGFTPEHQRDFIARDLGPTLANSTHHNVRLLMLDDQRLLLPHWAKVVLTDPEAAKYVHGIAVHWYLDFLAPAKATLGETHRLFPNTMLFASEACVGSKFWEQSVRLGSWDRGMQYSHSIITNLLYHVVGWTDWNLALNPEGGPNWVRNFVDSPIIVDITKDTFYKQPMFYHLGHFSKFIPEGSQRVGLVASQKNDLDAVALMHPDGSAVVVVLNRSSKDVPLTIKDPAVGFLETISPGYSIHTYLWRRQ
Outline: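 Normal human glucocerebrosidase (0.2 nM final) was assayed with resorufin β-D-glucopyranoside (30 uM final) in 50mM citric acid/KH2PO4, 10mM sodium taurocholate, 0.01% tween-20, pH 5.9. Compounds were titrated; fluorescence (Ex 548, Em 600) read after 20 min at RT.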
In the case of `O=C(c1ccccc1)c1c[nH]c2cc3c(cc2c1=O)OCCO3`, the Potency is reported as inactive: > 76.9 µM.
In the case of `O=C(CSc1ncccc1C(=O)O)NCc1ccc(F)cc1`, the Potency is reported as inactive: > 76.9 µM.
In the case of `CCOC(=O)CSc1nnc(CNC(=O)c2cccs2)n1CCc1ccccc1`, the Potency is reported as inactive: > 76.9 µM.
`CC(=O)N1CCc2[nH]c3ccccc3c2C1` was tested, and the Potency was inactive: > 76.9 µM.
For `Cc1noc(C)c1CSc1nnc2scc(-c3ccc(Cl)cc3)n12`, the Potency was inactive: > 76.9 µM.
In the case of `CCc1ccc(NC2=NC(C(=O)c3ccccc3)CC(=O)N2)cc1` (configuration not stated), the Potency is reported as inactive: > 76.9 µM.
`O=C(CSc1nnc(CN2CCOCC2)n1-c1ccc(Cl)cc1)Nc1cc(Cl)ccc1O` was tested, and the Potency was “inactive”.
With `Cc1nc2cc(-c3ccccc3)ccc2o1` the Potency was inactive: > 76.9 µM.
In the case of `CCCCN(C)CCNC(=O)c1c[nH]c2ccc(S(=O)(=O)N(CC)CC)cc2c1=O`, the Potency is reported as inactive: > 76.9 µM.
For `CN1CCN(C(=O)N2CCNC2=O)CC1`, the Potency was inactive: > 76.9 µM.
`Clc1ccc(-c2nnc(N3CCCC3)nn2)cc1` was tested, and the Potency was inactive: > 76.9 µM.
In the case of `N#CCSc1nnc2ccc3ccccc3n12`, the Potency is reported as inactive: > 76.9 µM.
In the case of `CCOC(=O)c1ccc(NC(=O)COc2ccc(-n3cnnn3)cc2)cc1`, the Potency is reported as inactive: > 76.9 µM.
In the case of `COc1ccccc1CNC(=O)Cn1cnc2ccccc2c1=O`, the Potency is reported as inactive: > 76.9 µM.
`Cc1cc(C)nc(N2CCC(C(=O)NC3CCCc4ccccc43)CC2)n1` (configuration not stated) was tested, and the Potency was inactive: > 76.9 µM.
`C=C(C)Cn1c(SCC)nc2ccccc2c1=O` was tested, and the Potency was inactive: > 76.9 µM.
With `Cc1cc(NC(=O)CN2CCCCCCC2)no1` the Potency was inactive: > 76.9 µM.
For `O=C(N1CCOCC1)N1CCCC(c2nc(-c3cccs3)no2)C1` (configuration not stated), the Potency was inactive: > 76.9 µM.
With `Cc1nc(NCc2ccco2)c(C#N)c2c1COC(C)(C)C2` the Potency was inactive: > 76.9 µM.
With `COc1ccc(-c2coc3c(CN4CCCCC4)c(O)c(CN4CCCCC4)c(O)c3c2=O)cc1` the Potency was inactive: > 76.9 µM.
With `C=CCSc1nnc(-c2ccccc2NC(C)=O)c(=O)[nH]1` the Potency was inactive: > 76.9 µM.
`O=C(Nc1nnc(CC(=O)N2CCOCC2)s1)C1COc2ccccc2O1` (configuration not stated) was tested, and the Potency was inactive: > 76.9 µM.
`O=C1CCCN1CCCNc1ccc(S(=O)(=O)N2CCCCC2)cn1` was tested, and the Potency was inactive: > 76.9 µM.
`CCOC(=O)C1CCN(S(=O)(=O)c2cccc(-c3cn4cccc(C)c4n3)c2)CC1` was tested, and the Potency was inactive: > 76.9 µM.
`CCOC(=O)Cn1c2ccccc2c2nc3ccccc3nc21` was tested, and the Potency was inactive: > 76.9 µM.
`COCCNC(=O)CN1CCC(n2c(C)nc3cc(C(F)(F)F)ccc32)CC1` was tested, and the Potency was inactive: > 76.9 µM.
For `Cc1cc(OCC(O)CN2CCN(C)CC2)ccc1C(C)C` (configuration not stated), the Potency was inactive: > 76.9 µM.
For `Cc1cccc(Nc2nc(-c3ccccn3)cs2)n1`, the Potency was “inactive”.
In the case of `CCOC(=O)Nc1ccc2c(c1)nc(CN1CCOCC1)n2C`, the Potency is reported as inactive: > 76.9 µM.
For `CC(C)CN(C(=O)COC(=O)c1ccc2c(c1)NC(=O)CS2)C1CCS(=O)(=O)C1` (configuration not stated), the Potency was inactive: > 76.9 µM.
`COc1ccc(-n2c(C)nc3c(cnn3-c3ccccc3)c2=O)cc1` was tested, and the Potency was inactive: > 76.9 µM.
In the case of `O=C(NCCCN1CCN(c2cccc(Cl)c2)CC1)c1nc(-c2ccncc2)no1`, the Potency is reported as inactive: > 76.9 µM.
For `COC(=O)c1ccc(CSc2nc3c(cnn3-c3ccc(C)c(C)c3)c(=O)[nH]2)o1`, the Potency was active: 13.9 µM.
For `COc1ccccc1-c1cc(C(=O)Nc2cc(C)n(Cc3ccc(Cl)cc3)n2)no1`, the Potency was inactive: > 76.9 µM.
With `CCc1ccccc1N(CC(=O)Nc1cccc(N(C)S(C)(=O)=O)c1)S(C)(=O)=O` the Potency was inactive: > 76.9 µM.
With `COc1cc2c(cc1OC)-c1cc(NC3CCCCCCC3)nc(=O)n1CC2` the Potency was inactive: > 76.9 µM.
With `Cn1c(SCc2nc3ccccc3[nH]2)nnc1-c1cccs1` the Potency was inactive: > 76.9 µM.
With `Cc1nnc(SCC(=O)NCc2ccco2)[nH]c1=O` the Potency was inactive: > 76.9 µM.
`COc1ccc(Cl)cc1S(=O)(=O)N1CCN(C(=O)COc2ccccc2)CC1` was tested, and the Potency was inactive: > 76.9 µM.
For `CN1C(=C2C(=O)OC(C)(C)OC2=O)Sc2ccccc21`, the Potency was “inactive”.
In the case of `COc1ccc(C(=O)Nc2ccc(S(=O)(=O)Nc3onc(C)c3C)cc2)cc1OC`, the Potency is reported as inactive: > 76.9 µM.
For `O=c1[nH]c2cc3c(cc2cc1C(c1nnnn1Cc1ccccc1)N1CCCc2ccccc21)OCO3` (configuration not stated), the Potency was inactive: > 76.9 µM.
In the case of `CCN(CC)C(=O)C1=C(C)NC(=O)NC1c1c(F)cccc1Cl` (configuration not stated), the Potency is reported as inactive: > 76.9 µM.
`CCc1c(C)nc2ncnn2c1NCCc1ccc(OC)c(OC)c1` was tested, and the Potency was “inactive”.
With `O=C(CCC(=O)NC1CCN(Cc2ccccc2)CC1)NCc1ccco1` the Potency was inactive: > 76.9 µM.
For `CC1N/C(=C\C(=O)c2ccccc2)N(O)C1(C)C` (configuration not stated), the Potency was inactive: > 76.9 µM.
With `CSc1nncc(-c2ccc(F)c(F)c2)n1` the Potency was inactive: > 76.9 µM.
For `FC(F)(F)c1nnc2sc(-c3cccs3)nn12`, the Potency was inactive: > 76.9 µM.
For `COCCOC(=O)c1c(C)oc2ccc(NS(=O)(=O)c3ccc(C(=O)O)cc3)cc12`, the Potency was inactive: > 76.9 µM.
For `Fc1ccc(-c2noc(C3CCN(Cc4cccnc4)CC3)n2)cc1`, the Potency was inactive: > 76.9 µM.
`COCCN1C(=O)C(=O)/C(=C(/O)c2cccc(OC)c2)C1c1ccco1` (configuration not stated) was tested, and the Potency was inactive: > 76.9 µM.
With `CC(=O)Nc1c(C(=O)c2ccc(F)cc2)oc2ccccc12` the Potency was inactive: > 76.9 µM.
In the case of `O=c1c2ccccc2nc(SCc2cn3ccsc3n2)n1-c1ccccc1F`, the Potency is reported as inactive: > 76.9 µM.
In the case of `CCOC(=O)c1cccc(S(=O)(=O)N(CCO)Cc2cc3cc(OC)ccc3[nH]c2=O)c1`, the Potency is reported as inactive: > 76.9 µM.
With `O=C(CSc1nnc2scc(-c3ccccc3)n12)Nc1ccc2c(c1)OCCO2` the Potency was inactive: > 76.9 µM.
`CCOc1ccc(OCC)c(NC(=O)CSc2nc3c(c(=O)n(C)c(=O)n3C)n2C)c1` was tested, and the Potency was inactive: > 76.9 µM.
In the case of `Cc1cccc(NC(=O)CSc2n[nH]c(-c3ccncc3)n2)c1`, the Potency is reported as inactive: > 76.9 µM.
For `O=C1c2ccccc2C(=O)N1CCN1CCCCC1`, the Potency was inactive: > 76.9 µM.
In the case of `O=C(NCCC1=CCCCC1)c1ccc(F)c(S(=O)(=O)N2CCOCC2)c1`, the Potency is reported as inactive: > 76.9 µM.
For `COCCNC(=O)C1CCCN(c2ncccn2)C1` (configuration not stated), the Potency was inactive: > 76.9 µM.
With `COC(=O)c1ccccc1NC(=O)C1CCCN(S(=O)(=O)c2ccccc2)C1` (configuration not stated) the Potency was inactive: > 76.9 µM.
`CN(C)CCCNC(=O)CC(c1ccccc1)c1ccccc1O` (configuration not stated) was tested, and the Potency was inactive: > 76.9 µM.
`Cc1cc(O)cc(=O)n1Cc1ccco1` was tested, and the Potency was inactive: > 76.9 µM.
For `Cc1noc(C)c1COc1ccc(C(=O)OCC(=O)NC(=O)C2COc3ccccc3O2)cc1` (configuration not stated), the Potency was inactive: > 76.9 µM.
`CCc1cccc(CC)c1N(COC)C(=O)Cn1c(CO)nc2ccccc21` was tested, and the Potency was inactive: > 15.4 µM.
In the case of `CC(=O)c1sc2nc(=O)c(C)nn2c1C`, the Potency is reported as inactive: > 76.9 µM.
In the case of `Cc1c(Cl)cccc1NC(=O)CSc1nnc(CCNC(=O)OC(C)(C)C)o1`, the Potency is reported as inactive: > 76.9 µM.
`COc1ccccc1Oc1cc(C#N)c(C#N)cc1-n1nnc2ccccc21` was tested, and the Potency was inactive: > 76.9 µM.
With `COc1ccc(Br)cc1-c1noc(-c2ccccc2F)n1` the Potency was “inactive”.
`N#Cc1c(N)nc2c(c1-c1ccc3c(c1)OCO3)CCCCCC2` was tested, and the Potency was inactive: > 76.9 µM.
`CCOc1ccc2c(c1)c1nnc(SCC(=O)N3CCC(C)CC3)nc1n2C` was tested, and the Potency was inactive: > 76.9 µM.
For `CSc1nsc(SCC(=O)NC2CCCCC2)n1`, the Potency was inactive: > 76.9 µM.
In the case of `O=C(Nc1ccccc1)NC1(C(=O)N2CCN(c3ncccn3)CC2)CCCCC1`, the Potency is reported as inactive: > 76.9 µM.
`O=C(CN1CCOCC1)Nc1ccc(Oc2ccc(NC(=O)CN3CCOCC3)cc2)cc1` was tested, and the Potency was “inactive”.
For `COc1ccc(C)cc1NC(=O)CSc1nnc(-c2ccco2)n1Cc1ccco1`, the Potency was inactive: > 76.9 µM.
In the case of `Cc1ccc(CNC(=O)C(C)OC(=O)c2ccco2)cc1` (configuration not stated), the Potency is reported as inactive: > 76.9 µM.
With `C=CCn1c(Sc2nnc(C)s2)nc2c1c(=O)[nH]c(=O)n2C` the Potency was inactive: > 76.9 µM.
`COC(=O)[C@H](CC(C)C)NC(=O)NC1CCCc2ccccc21` (some centres not stated) was tested, and the Potency was inactive: > 76.9 µM.
In the case of `COC(=O)C1CCN(C(=O)COC(=O)c2n[nH]c3ccccc23)CC1`, the Potency is reported as inactive: > 76.9 µM.
For `Cn1c(=O)n(CCOc2ccccc2Cl)c2ccccc21`, the Potency was inactive: > 76.9 µM.
For `CC1CCN(C(=O)c2ccccc2NC(=O)c2cccc(S(=O)(=O)N3CCOCC3)c2)CC1`, the Potency was inactive: > 76.9 µM.
With `O=C(O)C1C2CCC(O2)C1C(=O)Nc1cccc(F)c1` (configuration not stated) the Potency was inactive: > 76.9 µM.
With `Cc1nc(C)c(C(=O)Nc2ccc(Oc3ccccc3)cc2)o1` the Potency was inactive: > 76.9 µM.
With `Cc1nc(C)c(C(=O)NCc2ccccc2Cl)o1` the Potency was inactive: > 76.9 µM.
For `CCOC(=O)c1sc(=S)n(-c2ccccc2OC)c1N`, the Potency was inactive: > 76.9 µM.
`Cc1nccc2[nH]c(=O)c(C(=O)NC3CCCCC3C)cc12` (configuration not stated) was tested, and the Potency was inactive: > 76.9 µM.
In the case of `O=C1OCCC1Sc1nc2ccccc2[nH]1` (configuration not stated), the Potency is reported as inactive: > 76.9 µM.
In the case of `Cc1c(C(=O)N2CCN(c3ccc(C(F)(F)F)cn3)CC2)oc2ccccc12`, the Potency is reported as inactive: > 76.9 µM.
`CC1CC(C)CN(c2ncnc3c2cnn3Cc2ccc(Cl)cc2)C1` (configuration not stated) was tested, and the Potency was inactive: > 76.9 µM.
`Cc1c(NS(=O)(=O)c2cccs2)c(=O)n(-c2ccccc2)n1C` was tested, and the Potency was inactive: > 76.9 µM.
With `CCOc1ccccc1NC(=O)CSc1nnc(CNC(=O)c2ccco2)o1` the Potency was inactive: > 76.9 µM.
In the case of `O=C(Nc1ccc2c(c1)OCO2)c1ccc(COc2ccc3c(c2)CCC3)o1`, the Potency is reported as inactive: > 76.9 µM.

— PubChem BioAssay AID360 (National Center for Advancing Translational Sciences (NCATS), 2006)
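Also: the screen sought inhibitors.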
Potency is read from the fitted curve at half-maximal effect.
